Reference: publication PMC4336329 (PLoS ONE, 2015)
About 2,200 (0.71%) of roughly 310,000 compounds showed an effect of 50% or more. Effects have a minus sign here. Some of the results follow.

Each compound was assayed against human ether-à-go-go-related gene (hERG) potassium channel (human, UniProt Q12809) (assay: primary screen, population patch clamp on CHO cells stably expressing hERG).
Chain of human ether-à-go-go-related gene (hERG) potassium channel (Q12809 whole entry, looked up): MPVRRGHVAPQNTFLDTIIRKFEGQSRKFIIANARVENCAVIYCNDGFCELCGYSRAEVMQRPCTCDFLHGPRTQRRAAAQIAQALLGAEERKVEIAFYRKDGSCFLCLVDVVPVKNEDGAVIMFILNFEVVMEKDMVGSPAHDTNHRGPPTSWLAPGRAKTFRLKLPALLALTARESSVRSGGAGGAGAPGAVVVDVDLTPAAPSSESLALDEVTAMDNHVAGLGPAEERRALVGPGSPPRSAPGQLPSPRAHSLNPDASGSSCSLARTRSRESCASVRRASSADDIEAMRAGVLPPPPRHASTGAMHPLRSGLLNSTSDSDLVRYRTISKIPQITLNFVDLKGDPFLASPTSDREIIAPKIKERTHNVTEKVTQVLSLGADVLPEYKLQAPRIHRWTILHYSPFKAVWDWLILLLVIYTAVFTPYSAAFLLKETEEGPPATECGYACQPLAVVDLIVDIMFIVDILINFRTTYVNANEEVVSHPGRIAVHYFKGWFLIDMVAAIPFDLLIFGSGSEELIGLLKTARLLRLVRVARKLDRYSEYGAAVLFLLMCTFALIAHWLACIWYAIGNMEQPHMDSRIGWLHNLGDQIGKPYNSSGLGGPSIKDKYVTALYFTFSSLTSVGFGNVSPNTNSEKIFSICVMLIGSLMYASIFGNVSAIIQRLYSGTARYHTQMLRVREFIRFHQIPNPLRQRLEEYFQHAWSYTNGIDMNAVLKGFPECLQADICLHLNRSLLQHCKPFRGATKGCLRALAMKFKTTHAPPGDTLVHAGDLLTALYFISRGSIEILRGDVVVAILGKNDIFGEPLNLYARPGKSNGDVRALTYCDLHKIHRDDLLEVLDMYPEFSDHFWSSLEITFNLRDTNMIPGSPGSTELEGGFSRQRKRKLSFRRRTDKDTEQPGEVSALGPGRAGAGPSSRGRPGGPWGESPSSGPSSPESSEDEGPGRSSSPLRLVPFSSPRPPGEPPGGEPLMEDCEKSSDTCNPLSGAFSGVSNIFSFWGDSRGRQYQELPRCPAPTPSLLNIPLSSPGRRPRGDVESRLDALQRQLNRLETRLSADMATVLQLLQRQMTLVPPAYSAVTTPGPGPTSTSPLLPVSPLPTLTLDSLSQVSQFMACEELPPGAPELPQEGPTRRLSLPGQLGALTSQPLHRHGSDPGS

SMILES | hERG current change (%, negative = inhibition) at 1uM
CCN(CCCNC(=O)C1CCC(=O)N1Cc1ccc(C)cc1)c1cccc(C)c1 (centres unmarked) | 3.57%
COc1ccc(-c2nn(-c3ccccc3)cc2C(=O)O)cc1N | 6.23%
COc1cc(C)c(NC(=S)Nc2cccc(Cl)c2C)cc1OC | 13.3%
Cn1c(CCN2CCOCC2)nc2cc(NC(=O)COc3ccccc3)ccc21 | 2.19%
Cc1ccccc1NC(=S)NCc1ccc(F)cc1 | 11%
CCCn1c(=N)c(C#N)cc2c(=O)n3ccccc3nc21 | 6.15%
CCOC(=O)N/N=C/c1ccc(F)cc1 | 12.4%
O=C(CCc1nnc(Cc2ccc(-c3ccccc3)cc2)o1)NCCc1cccnc1 | 5.17%
Cc1c(Cl)c(=O)oc2cc(OCC(=O)NCc3cccs3)ccc12 | 5.12%
COc1ccc(C2CC(c3ccc(Br)cc3)Nc3nc(N)nn32)cc1 (centres unmarked) | -12.4%
COc1ccc(N2CCN(S(=O)(=O)c3ccc(Cl)s3)CC2)cc1 | 16%
O=C(CCC(=O)N1CCC2(CC1)OCCO2)Nc1nnc(C2CCCCC2)s1 | 17.7%
COc1cccc(N=Nc2ccc3ccccc3c2O)c1 | 21.5%
Cc1cccc2cc(/C=C/C(=O)c3ccco3)c(Cl)nc12 | 10.2%
Cn1c(SCC(=O)NC2CCCCC2)nnc1-c1ccccn1 | 5.73%
CN(C)c1ccc(C(CNC(=O)c2ccc(C#N)cc2)c2c[nH]c3ccccc23)cc1 (centres unmarked) | 6.97%
COc1ccc(C(CNC(=O)C(C)(C)Oc2ccc(Cl)cc2)N2CCCC2)cc1 (centres unmarked) | -2.2%
CCc1nnc(NC(=O)/C=C/c2cccs2)s1 | 12.9%
Cc1ccc(C2NC(=S)NC(c3ccc(C)cc3)C23C(=O)NC(=O)NC3=O)cc1 (centres unmarked) | 10.1%

SMILES | hERG current change (%, negative = inhibition) at 1uM
CCn1nc(C(=O)Nc2ccc(S(=O)(=O)Nc3ncccn3)cc2)c2ccccc2c1=O | 2.32%
O=C(CC1C(=O)NCCN1Cc1ccc(Cl)c(F)c1)NC1CCCCC1 (centres unmarked) | 7.85%
Cc1ccc2c(c1)N(CCC(=O)NCc1cccs1)C(=O)C(C)O2 (centres unmarked) | 11.1%
COc1ccc(-c2noc3c2-c2nc(C(C)C)sc2CC3)cc1 | 9.27%
O=c1[nH]c(=S)[nH]c(O)c1N=Nc1cccc(S(=O)(=O)N2CCOCC2)c1 | 9.32%
Cc1ccc(-c2nc3c(=O)n(C)c4ccccc4c3o2)cc1 | 24.8%
Cc1onc(-c2c(Cl)cccc2Cl)c1C(=O)N=C(N)N1CCCC1 | 9.88%
COc1ccc(Cc2nnc(SCC(=O)c3cccc([N+](=O)[O-])c3)n2C)cc1 | 8.96%
COc1ccc(S(=O)(=O)N2CC(C(=O)O)Oc3ccc(Cl)cc32)cc1 (centres unmarked) | 15.9%
Cc1cc(CNC(=O)c2cc(COc3ccc(F)c(F)c3)on2)nn1C | -14.3%
CCCCC(=O)Nc1ccc(N2CCN(S(C)(=O)=O)CC2)cc1 | -1.28%
CCOC(=O)C(NC(=O)CCl)(Nc1sc(C)c(CC)c1C#N)C(F)(F)F (centres unmarked) | -3.6%
O=C1c2ccccc2NC(c2ccccn2)N1c1ccc(Cl)cc1 (centres unmarked) | 0.394%
C/C(=N\NC(=O)OC(C)(C)C)c1ccc[nH]1 | 7.25%
COc1ccccc1NC(=O)N1CCCC(c2nc3c(nnn3Cc3ccc(C)cc3)c(=O)[nH]2)C1 (centres unmarked) | -11.1%
CNC(=O)COC(=O)[C@@H](Nc1ccc(S(=O)(=O)N2CCOCC2)cc1[N+](=O)[O-])C(C)C | -2.27%
O=c1/c(=C\c2cc([N+](=O)[O-])cc([N+](=O)[O-])c2O)sc2nc3ccccc3n12 | 10.6%
CCC1(C(=O)OC)NC(c2ccco2)C2C(=O)N(c3ccc(F)cc3)C(=O)C21 (centres unmarked) | 6.08%
CC[n+]1c(C)n(C)c2cc(S(=O)(=O)N(C)C)ccc21.[I-] | 10.2%

SMILES | hERG current change (%, negative = inhibition) at 1uM
NC1=C([N+](=O)[O-])C(c2ccc3c(c2)OCO3)C2=C(CCCC2=O)O1 (centres unmarked) | 11.5%
S=c1[nH]nc(-c2cc(-c3ccccc3)n[nH]2)n1/N=C/c1ccc(Cl)c(Cl)c1 | 8.7%
CCCCC1(COC(=O)CCC(=O)O)C(=O)N(c2ccccc2)N(c2ccccc2)C1=O | 15.5%
COC(=O)C1CCN(c2ccc(C(N)=O)cc2[N+](=O)[O-])CC1 | 10.7%
Cc1ccccc1-c1nc2ccccc2c(=O)n1/N=C/c1ccc([N+](=O)[O-])cc1 | 4.52%
Cc1nc(S(=O)(=O)N(C)Cc2ccccc2)c(C#N)c(C)c1Cl | 10.9%
CC1(C)CN(c2ccc(CC#N)cc2)C1=O | 10%
CS(=O)c1ccccc1-c1nc(-c2cccc(Cl)c2)no1 (centres unmarked) | -3.12%
CC(=O)C1C(c2ccc(F)cc2)C2C(C)=NN=C2CC1(C)O (centres unmarked) | 15.9%
CCOC(=O)N1CCN(C(=O)C2CCC(=O)N(CCCN3CCCC3=O)C2)CC1 (centres unmarked) | 13%
CCN(Cc1nc2cc(OC)c(OC)cc2c(=O)[nH]1)C(=O)c1ccc(S(=O)(=O)N(C)C)cc1 | 6.17%
CC(C)NC(=O)c1ccc(COCC(F)(F)F)cc1 | 18.1%
Cc1ccc(-n2ncc3c(=O)n(CC(=O)OCc4ccccc4)cnc32)cc1 | -2.35%
Cc1cc(C)c(NC(=O)CN2C(=O)CC(C)S(=O)(=O)c3ccccc32)c(C)c1 (centres unmarked) | 16.2%
O=C(COc1ccc(Cl)cc1Cl)N1CCN(C(=O)c2ccco2)CC1 | 15.1%
CC1CCN(S(=O)(=O)c2ccc(NC(=O)c3ccncc3)cc2)CC1 | 9.75%
CCCOP(=O)(c1ccc(N(C)C)cc1)C(O)c1ccncc1 (centres unmarked) | 6.3%
COc1ccccc1CNC(=O)Cn1c(=O)oc2cc(S(=O)(=O)N3CCCC3)ccc21 | 7.23%
